Laboratory results reported in the supplement of paper PMC4604168 (melanoma cell lines).
The list shows a part of the results. Repeats are few or missing, and single values can be far off.

test system: WM451Lu; assay: cell count relative to DMSO control; melanoma cells; higher = more viable cells; settings: library dose: standard library concentration; 72 h
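Also: cells treated in 1,536-well plates, then fixed and DAPI-stained, with nuclei counted from automated high-throughput microscope images.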

| SMILES | cell count [%] |
| --- | --- |
| COc1cc([C@@H]2c3cc4c(cc3[C@@H](O[C@@H]3O[C@@H]5CO[C@@H](C)O[C@H]5[C@H](O)[C@H]3O)[C@H]3COC(=O)[C@H]23)OCO4)cc(OC)c1O [etoposide] + CO[C@H]1C[C@@H]2CC[C@@H](C)[C@@](O)(O2)C(=O)C(=O)N2CCCC[C@H]2C(=O)O[C@H]([C@H](C)C[C@@H]2CC[C@@H](OCCO)[C@H](OC)C2)CC(=O)[C@H](C)/C=C(\C)[C@@H](O)[C@@H](OC)C(=O)[C@H](C)C[C@H](C)/C=C/C=C/C=C/1C [everolimus] (first compound 0.1 µM, partner dose 0.1 µM) | 77 |
| Cn1cnc2c(F)c(Nc3ccc(Br)cc3Cl)c(C(=O)NOCCO)cc21 [selumetinib] + CNC(=O)c1cc(Oc2ccc(NC(=O)Nc3ccc(Cl)c(C(F)(F)F)c3)cc2)ccn1 [sorafenib] (first compound 0.075 µM, partner dose 2 µM) | 60.4 |
| COc1cc([C@@H]2c3cc4c(cc3[C@@H](O[C@@H]3O[C@@H]5CO[C@@H](C)O[C@H]5[C@H](O)[C@H]3O)[C@H]3COC(=O)[C@H]23)OCO4)cc(OC)c1O [etoposide] + CC(=O)O[C@@]12CO[C@@H]1C[C@H](O)[C@@]1(C)C(=O)[C@H](O)C3=C(C)[C@@H](OC(=O)[C@H](O)[C@@H](NC(=O)OC(C)(C)C)c4ccccc4)C[C@@](O)([C@@H](OC(=O)c4ccccc4)[C@H]21)C3(C)C [Docetaxel] (first compound 0.1 µM, partner dose 0.0005 µM) | 32.2 |
| C[C@]1(O)C[C@@H](c2nc(-c3ccc4ccc(-c5ccccc5)nc4c3)c3c(N)nccn32)C1 + CN1CCN(c2ccc3nc(-c4c(N)c5c(F)cccc5[nH]c4=O)[nH]c3c2)CC1 [Dovitinib] (first compound 2 µM, partner dose 0.5 µM) | 103 |
| CCN(CC)CCNC(=O)c1c(C)[nH]c(/C=C2\C(=O)Nc3ccc(F)cc32)c1C [sunitinib] + NC1(c2ccc(-c3nc4ccn5c(=O)[nH]nc5c4cc3-c3ccccc3)cc2)CCC1 [MK2206] (first compound 2 µM, partner dose 2 µM) | 50 |
| COc1cc([C@@H]2c3cc4c(cc3[C@@H](O[C@@H]3O[C@@H]5CO[C@@H](C)O[C@H]5[C@H](O)[C@H]3O)[C@H]3COC(=O)[C@H]23)OCO4)cc(OC)c1O [etoposide] + Cn1c(=O)n(-c2ccc(C(C)(C)C#N)cc2)c2c3cc(-c4cnc5ccccc5c4)ccc3ncc21 [NVP-BEZ235] (first compound 0.1 µM, partner dose 0.02 µM) | 88.3 |
| C[C@]1(O)C[C@@H](c2nc(-c3ccc4ccc(-c5ccccc5)nc4c3)c3c(N)nccn32)C1 + Nc1ncn([C@H]2C[C@H](O)[C@@H](CO)O2)c(=O)n1 [decitabine] (first compound 2 µM, partner dose 0.5 µM) | 94.5 |
| CCN(CC)CCNC(=O)c1c(C)[nH]c(/C=C2\C(=O)Nc3ccc(F)cc32)c1C [sunitinib] + O=C(O)[C@@H]1[O][Sb](=[O])([O][Sb]2(=[O])[O][C@H]([C@H](O)CO)[C@H](O)[C@H](C(=O)O)[O]2)[O][C@H]([C@H](O)CO)[C@@H]1O [stibogluconate] (first compound 2 µM, partner dose 10 µM) | 86.7 |
| CCN(CC)CCNC(=O)c1c(C)[nH]c(/C=C2\C(=O)Nc3ccc(F)cc32)c1C [sunitinib] + Cn1c(=O)n(-c2ccc(C(C)(C)C#N)cc2)c2c3cc(-c4cnc5ccccc5c4)ccc3ncc21 [NVP-BEZ235] (first compound 2 µM, partner dose 0.02 µM) | 47 |
| CCN(CC)CCNC(=O)c1c(C)[nH]c(/C=C2\C(=O)Nc3ccc(F)cc32)c1C [sunitinib] + Cc1nc(Nc2ncc(C(=O)Nc3c(C)cccc3Cl)s2)cc(N2CCN(CCO)CC2)n1 [dasatanib] (first compound 2 µM, partner dose 0.02 µM) | 62.3 |
| COc1cc([C@@H]2c3cc4c(cc3[C@@H](O[C@@H]3O[C@@H]5CO[C@@H](C)O[C@H]5[C@H](O)[C@H]3O)[C@H]3COC(=O)[C@H]23)OCO4)cc(OC)c1O [etoposide] + O=C(O)c1ccc2c(c1)nc(Nc1cccc(Cl)c1)c1ccncc12 [CX4945] (first compound 0.1 µM, partner dose 2 µM) | 93.8 |
| COc1cc([C@@H]2c3cc4c(cc3[C@@H](O[C@@H]3O[C@@H]5CO[C@@H](C)O[C@H]5[C@H](O)[C@H]3O)[C@H]3COC(=O)[C@H]23)OCO4)cc(OC)c1O [etoposide] + CCCCCCCCCCCCCCCCCCOP(=O)([O-])OC1CC[N+](C)(C)CC1 [Perifosine] (first compound 0.1 µM, partner dose 2 µM) | 99.7 |
| Cn1cnc2c(F)c(Nc3ccc(Br)cc3Cl)c(C(=O)NOCCO)cc21 [selumetinib] + CN(c1ncccc1CNc1nc(Nc2ccc3c(c2)CC(=O)N3)ncc1C(F)(F)F)S(C)(=O)=O [PF562271] (first compound 0.075 µM, partner dose 0.4 µM) | 64.3 |
| COc1cc([C@@H]2c3cc4c(cc3[C@@H](O[C@@H]3O[C@@H]5CO[C@@H](C)O[C@H]5[C@H](O)[C@H]3O)[C@H]3COC(=O)[C@H]23)OCO4)cc(OC)c1O [etoposide] + O=C(/C=C/c1cccnc1)NCCCCC1CCN(C(=O)c2ccccc2)CC1 [FK866] (first compound 0.1 µM, partner dose 0.05 µM) | 132 |
| Cn1cnc2c(F)c(Nc3ccc(Br)cc3Cl)c(C(=O)NOCCO)cc21 [selumetinib] + C[C@]1(c2nc3c(C(N)=O)cccc3[nH]2)CCCN1 [Veliparib] (first compound 0.075 µM, partner dose 7 µM) | 63.7 |
| Cn1cnc2c(F)c(Nc3ccc(Br)cc3Cl)c(C(=O)NOCCO)cc21 [selumetinib] + COCC[n+]1c2c(n(Cc3cnccn3)c1C)C(=O)c1ccccc1C2=O [YM155] (first compound 0.075 µM, partner dose 0.002 µM) | 24.1 |
| COc1cc([C@@H]2c3cc4c(cc3[C@@H](O[C@@H]3O[C@@H]5CO[C@@H](C)O[C@H]5[C@H](O)[C@H]3O)[C@H]3COC(=O)[C@H]23)OCO4)cc(OC)c1O [etoposide] + COc1ccc(Cl)c(Nc2nc3ccccc3nc2NS(=O)(=O)c2cccc(NC(=O)C(C)(C)N)c2)c1 [XL147] (first compound 0.1 µM, partner dose 4 µM) | 113 |
| C[C@]1(O)C[C@@H](c2nc(-c3ccc4ccc(-c5ccccc5)nc4c3)c3c(N)nccn32)C1 + O=C(O)[C@@H]1[O][Sb](=[O])([O][Sb]2(=[O])[O][C@H]([C@H](O)CO)[C@H](O)[C@H](C(=O)O)[O]2)[O][C@H]([C@H](O)CO)[C@@H]1O [stibogluconate] (first compound 2 µM, partner dose 10 µM) | 88.7 |
| Cn1cnc2c(F)c(Nc3ccc(Br)cc3Cl)c(C(=O)NOCCO)cc21 [selumetinib] + Cn1c(Nc2ccc(C(F)(F)F)cc2)nc2cc(Oc3ccnc(-c4ncc(C(F)(F)F)[nH]4)c3)ccc21 [CHIR265] (first compound 0.075 µM, partner dose 0.4 µM) | 26.6 |
| CCN(CC)CCNC(=O)c1c(C)[nH]c(/C=C2\C(=O)Nc3ccc(F)cc32)c1C [sunitinib] + CC(=O)c1c(C)c2cnc(Nc3ccc(N4CCNCC4)cn3)nc2n(C2CCCC2)c1=O [palbociclib] (first compound 2 µM, partner dose 0.2 µM) | 52.5 |
| Cn1cnc2c(F)c(Nc3ccc(Br)cc3Cl)c(C(=O)NOCCO)cc21 [selumetinib] + COc1ccc(Cl)c(Nc2nc3ccccc3nc2NS(=O)(=O)c2cccc(NC(=O)C(C)(C)N)c2)c1 [XL147] (first compound 0.075 µM, partner dose 4 µM) | 55.2 |
| C[C@]1(O)C[C@@H](c2nc(-c3ccc4ccc(-c5ccccc5)nc4c3)c3c(N)nccn32)C1 + CC(=O)c1c(C)c2cnc(Nc3ccc(N4CCNCC4)cn3)nc2n(C2CCCC2)c1=O [palbociclib] (first compound 2 µM, partner dose 0.2 µM) | 83.8 |
| C[C@]1(O)C[C@@H](c2nc(-c3ccc4ccc(-c5ccccc5)nc4c3)c3c(N)nccn32)C1 + CNC(=O)c1cc(Oc2ccc(NC(=O)Nc3ccc(Cl)c(C(F)(F)F)c3)cc2)ccn1 [sorafenib] (first compound 2 µM, partner dose 2 µM) | 86 |
| CCN(CC)CCNC(=O)c1c(C)[nH]c(/C=C2\C(=O)Nc3ccc(F)cc32)c1C [sunitinib] + CC(C)C[C@H](NC(=O)[C@H](Cc1ccccc1)NC(=O)c1cnccn1)B(O)O [Bortezomib] (first compound 2 µM, partner dose 0.005 µM) | 23.5 |
| C[C@]1(O)C[C@@H](c2nc(-c3ccc4ccc(-c5ccccc5)nc4c3)c3c(N)nccn32)C1 + Clc1ccc(Nc2nnc(Cc3ccncc3)c3ccccc23)cc1 [vatalanib] (first compound 2 µM, partner dose 10 µM) | 75.8 |
| C[C@]1(O)C[C@@H](c2nc(-c3ccc4ccc(-c5ccccc5)nc4c3)c3c(N)nccn32)C1 + Cn1nnc2c(C(N)=O)ncn2c1=O [temozolomide] (first compound 2 µM, partner dose 10 µM) | 102 |
